{
  "source": "PubChem BioAssay AID624418",
  "about": "(National Center for Advancing Translational Sciences (NCATS), 2012)",
  "note": "“And” between values parts separate entries of the source, which are not always exact repeats. Equal entries are not always repeated. Among all 410,000 compounds or so, about 530 (0.13%) were called active. The inconclusive results got no clear call from the source; some entries with a clear call stand among them for comparison. Calls come from the whole dose curve; as a rule, active = well fitted inhibition curve with a large enough effect; inconclusive = small, poorly fitted or top-dose-only effect, or another doubt; inactive = no such curve, though single readings can be large or run the other way. Where the call is inconclusive, the potency comes from a doubtful curve fit. Potency is the fitted concentration of half-maximal effect.",
  "data": [
    {"assay": "qHTS of GLP-1 Receptor Inverse Agonists: Cytotox Screen", "settings": "HEK293 cAMP-luciferase reporter cells, luminescence, 24 h; series mostly up to 38.3 µM", "procedure,_shortened": "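To flag toxic compounds, the library was rerun on cells for 24 hr at 37 deg C and 5% CO2. Viability-linked luminescence was captured 12 min after adding luciferase detection reagent.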", "values": [
      {"smiles": "O=C(CSc1nnc(-c2ccco2)n1Cc1ccccc1)OC1CCCCC1", "Potency": "inactive"},
      {"smiles": "S=C(NCCCc1ccccc1)Nc1ccc(Br)cc1", "Potency": "inconclusive: 25.1 µM [inhibitor, single point]"},
      {"smiles": "COc1ccccc1C(=O)N1CCN(c2cccc(Cl)c2)CC1", "Potency": "inconclusive: 1 µM [inhibitor, full curve, poor fit]"},
      {"smiles": "COc1ccc(CC(N)c2csc(NC(=O)c3cc(C(C)(C)C)oc3C)n2)cc1", "note": "(configuration not stated)", "Potency": "inconclusive: 28.2 µM [inhibitor, single point]"},
      {"smiles": "C/C(=N\\Nc1nc2ccccc2s1)c1ccc2c(c1)OCO2", "Potency": "inconclusive: 28.2 µM [inhibitor, single point]"},
      {"smiles": "CCN(CC)CC(O)Cn1c(C)c(-c2ccccc2)c2cc([N+](=O)[O-])ccc21", "note": "(configuration not stated)", "Potency": "inconclusive: 11.2 µM [inhibitor, partial curve, poor fit]"},
      {"smiles": "COc1cccc(CNC(=O)C2Cc3cc(S(=O)(=O)N4CCCCCC4)ccc3N2C(C)=O)c1", "note": "(configuration not stated)", "Potency": "inactive"},
      {"smiles": "c1ccc(COc2ccc(CNn3cnnc3)cc2)cc1", "Potency": "inconclusive: 31.6 µM [inhibitor, single point]"},
      {"smiles": "CC(C)(C)OC(=O)NCCCC[C@@H](C(=O)NCCCCCCCCCCC(=O)N1CCN(C(=O)OC(C)(C)C)CC1)n1cc(CCO)nn1", "Potency": "inconclusive: 12.6 µM [inhibitor, single point]"},
      {"smiles": "O=C(N/N=C/c1ccc2c(c1)OCO2)c1cccc(NC(=O)c2ccccc2Cl)c1", "Potency": "inconclusive: 5.62 µM [inhibitor, partial curve]"},
      {"smiles": "COC(=O)c1ccc(C(=O)NC(=S)Nc2nc3c(s2)CC(C)CC3)cc1", "note": "(configuration not stated)", "Potency": "inactive"},
      {"smiles": "COc1cccc(C=NNC(=S)NN=Cc2cccc(OC)c2OC)c1OC", "Potency": "inconclusive: 10 µM [inhibitor, single point]"},
      {"smiles": "CCCCCn1c(NCc2ccccc2OC)nc2ccccc21", "Potency": "inconclusive: 11.2 µM [inhibitor, single point]"},
      {"smiles": "CC(=O)Nc1ccc(-c2ccnc3c2CC(C)(C(=O)NCc2ccc(F)c(F)c2)O3)cc1", "note": "(configuration not stated)", "Potency": "inconclusive: 7.08 µM [inhibitor, partial curve, poor fit]"},
      {"smiles": "O=C(N/N=C/c1cc(Cl)ccc1O)c1ccccc1Br", "Potency": "inconclusive: 0.501 µM [inhibitor, full curve, poor fit]"},
      {"smiles": "C=CCNc1nc(-c2cc3ccccc3o2)cs1", "Potency": "inactive"},
      {"smiles": "Cc1sc(NC(=O)c2ccco2)c(C(c2cccnc2)N2CCN(C)CC2)c1C", "note": "(configuration not stated)", "Potency": "inactive"},
      {"smiles": "O=C(c1ccco1)N(Cc1nc2ccccc2c(=O)[nH]1)C1CCCC1", "Potency": "inconclusive: 14.1 µM [inhibitor, single point]"},
      {"smiles": "Cc1cccc(CCNC(=O)Cn2ncc3c(=O)oc4ccccc4c32)c1", "Potency": "inactive"},
      {"smiles": "COc1ccc(S(=O)(=O)N(C(=O)c2ccncc2)c2ccc3oc4c(c3c2)CCCC4)cc1", "Potency": "inconclusive: 28.2 µM [inhibitor, single point]"},
      {"smiles": "C=CCNC(=S)NN=C1CCC(c2ccccc2)CC1", "note": "(configuration not stated)", "Potency": "inconclusive: 11.2 µM [inhibitor, single point]"},
      {"smiles": "COc1ccc([C@@H]2CC=C(C(=O)O)[C@H](c3ccc(Cl)cc3)N2S(=O)(=O)c2ccc(C)cc2)cc1OC", "Potency": "inconclusive: 20 µM [inhibitor, partial curve, poor fit]"},
      {"smiles": "COc1cc(C(=O)NCCSc2c(C)[nH]c3ccccc23)cc(OC)c1OC", "Potency": "inactive"},
      {"smiles": "Cc1ccc(NS(=O)(=O)c2cc(NC(=O)c3ccc4c(c3)NC(=O)CS4)ccc2Cl)c(C)c1", "Potency": "inconclusive: 10 µM [inhibitor, partial curve, poor fit]"},
      {"smiles": "O=C(N/N=C/c1cc2ccccc2[nH]1)c1ccccc1Cl", "Potency": "inconclusive: 28.2 µM [inhibitor, single point]"},
      {"smiles": "CCOc1ccc2nc(N(CCCN(C)C)C(=O)c3ccc4c(c3)CCCC4)sc2c1", "Potency": "inconclusive: 12.6 µM [inhibitor, single point]"},
      {"smiles": "Cc1ccc(S(=O)(=O)N2CCOCC2)cc1C(=O)OCC(=O)NCc1ccc2c(c1)OCO2", "Potency": "inactive"},
      {"smiles": "COc1ccccc1-c1cc(C(F)(F)F)nc(S(=O)(=O)CCCC(=O)O)n1", "Potency": "inconclusive: 10 µM [inhibitor, partial curve, poor fit]"},
      {"smiles": "COc1cccc(NC(=O)COC(=O)c2ccccc2C(=O)N(C)c2ccccc2)c1", "Potency": "inconclusive: 10 µM [inhibitor, single point]"},
      {"smiles": "Cn1c(CNc2ccc(O)cc2)nc2ccccc21", "Potency": "inconclusive: 11.2 µM [inhibitor, partial curve, poor fit]"},
      {"smiles": "CCCCCc1c(C)nc(Nc2ccccc2)[nH]c1=O", "Potency": "inconclusive: 31.6 µM [inhibitor, single point]"},
      {"smiles": "CCOc1ccc(NC(=O)c2oc3ccccc3c2NC(=O)C(C)Oc2ccccc2)cc1", "note": "(configuration not stated)", "Potency": "inactive"},
      {"smiles": "CCOc1ccc(NC(=O)CN(C)C(=O)c2cccnc2Sc2ccc(C)cc2C)cc1OCC", "Potency": "inconclusive: 31.6 µM [inhibitor, partial curve, poor fit]"},
      {"smiles": "Cc1cc(Br)cn2c(Cc3ccsc3)c(-c3ccc(Cl)cc3)nc12", "Potency": "inconclusive: 10 µM [inhibitor, single point]"},
      {"smiles": "O=C(NCc1ccc(-c2csnn2)cc1)c1cccs1", "Potency": "inactive"},
      {"smiles": "O=C(O)CCCn1cc(NC(=O)COc2ccccc2)cn1", "Potency": "inconclusive: 22.4 µM [inhibitor, single point]"},
      {"smiles": "COc1ccc(C2c3cc(OC)c(OC)cc3CC(=O)N2c2cccc(C#N)c2)cc1", "note": "(configuration not stated)", "Potency": "inconclusive: 28.2 µM [inhibitor, single point]"},
      {"smiles": "COc1ccc(C(C)NC(=S)NCc2ccc(F)cc2)cc1", "note": "(configuration not stated)", "Potency": "inconclusive: 11.2 µM [inhibitor, single point]"},
      {"smiles": "CCCn1c(SCC(=O)Nc2ccccc2OC)nnc1-c1ccco1", "Potency": "inconclusive: 11.2 µM [inhibitor, partial curve, poor fit]"},
      {"smiles": "CCOC(=O)CCC(NC(=O)CCC(=O)NC(CCC(=O)OCC)C(=O)OCC)C(=O)OCC", "note": "(configuration not stated)", "Potency": "inactive"},
      {"smiles": "CCC(=O)N1CCc2cc(CNS(=O)(=O)c3cc(Cl)ccc3OC)ccc21", "Potency": "inactive"},
      {"smiles": "CN(C)S(=O)(=O)c1ccc(-c2csc(N/N=C/c3ccc(O)cc3)n2)cc1", "Potency": "inconclusive: 12.6 µM [inhibitor, partial curve, poor fit]"},
      {"smiles": "CCN1CCN(c2cc(C)c3cc(NC(=O)c4cc(OC)cc(OC)c4)ccc3n2)CC1", "Potency": "inactive and inconclusive: 28.2 µM [inhibitor, single point]"},
      {"smiles": "COCCCNC(=S)Nc1cc2oc3ccccc3c2cc1OC", "Potency": "inconclusive: 3.55 µM [inhibitor, partial curve, poor fit]"},
      {"smiles": "Cc1ccc(O)c(-c2cc(C(=O)Nc3ccc(S(=O)(=O)N4CC(C)OC(C)C4)cc3)[nH]n2)c1", "note": "(configuration not stated)", "Potency": "inconclusive: 22.4 µM [inhibitor, single point]"},
      {"smiles": "CCN(CC)c1ccc(NC(=O)c2ccc(=O)[nH]c2)cc1S(=O)(=O)Nc1ccc(OC)cc1", "Potency": "inconclusive: 10 µM [inhibitor, partial curve]"},
      {"smiles": "CCc1ccc(N=c2c([N+](=O)[O-])nn(-c3ccccc3)n2O)cc1", "Potency": "inactive"},
      {"smiles": "COC(=O)C1CN(Cc2ccccc2)C(=O)C1=O", "note": "(configuration not stated)", "Potency": "inactive"},
      {"smiles": "CCN1CCN(Cc2ccc(NC(=O)c3ccc(C)c(NC(=O)c4nccn4C)c3)cc2C(F)(F)F)CC1", "Potency": "inactive"},
      {"smiles": "COc1ccc(C2NCCc3c2[nH]c2ccccc32)cc1COc1ccc(F)cc1", "note": "(configuration not stated)", "Potency": "inconclusive: 28.2 µM [inhibitor, single point]"},
      {"smiles": "N#C/C(=N\\Nc1ccc(Cl)cc1)C(N)=S", "Potency": "inconclusive: 10 µM [inhibitor, partial curve, poor fit]"},
      {"smiles": "CN(C)CCCNc1nc2sc3c(c2c(=O)n1CCc1ccccc1)CCCCC3", "Potency": "inconclusive: 14.1 µM [inhibitor, single point]"},
      {"smiles": "CCCSc1nsc(NC(=O)CC)n1", "Potency": "inactive"},
      {"smiles": "COc1ccc2nc(N=Nc3ccc(N(C)C)cc3)sc2c1", "Potency": "inconclusive: 2.82 µM [inhibitor, full curve]"},
      {"smiles": "Cc1csc(NC(=O)Cc2c(F)cccc2Cl)n1", "Potency": "inactive"},
      {"smiles": "Cc1sc2ncnc(N3CCC(C(=O)N(C)CC(=O)Nc4cccc(F)c4)CC3)c2c1C", "Potency": "inactive"},
      {"smiles": "O=C(Nc1cc(Cl)ccc1-n1cncn1)c1ccc([N+](=O)[O-])s1", "Potency": "inconclusive: 22.4 µM [inhibitor, single point]"},
      {"smiles": "CCC1S/C(=N/N=C/c2cccs2)NC1=O", "note": "(configuration not stated)", "Potency": "inconclusive: 28.2 µM [inhibitor, single point]"},
      {"smiles": "Cc1cc(OCC(=O)NCCCN2CCCC2=O)c2c(C)cc(=O)oc2c1", "Potency": "inconclusive: 10 µM [inhibitor, single point]"},
      {"smiles": "CC1CCCN(S(=O)(=O)c2ccc(NC(=O)C3CCN(C(=O)C(C)(C)C)CC3)cc2)C1", "note": "(configuration not stated)", "Potency": "inactive"},
      {"smiles": "Cc1oc(-c2cccc(Cl)c2)nc1CN1CCC(C(=O)NCc2ccco2)CC1", "Potency": "inconclusive: 7.08 µM [inhibitor, partial curve]"},
      {"smiles": "CC1(C)CC(NC(=O)c2ccc(-c3ccc([N+](=O)[O-])cc3)o2)CC(C)(C)N1", "Potency": "inconclusive: 20 µM [inhibitor, single point]"},
      {"smiles": "CCOc1cccc(/C=N/NC(=O)c2cccnc2)c1O", "Potency": "inconclusive: 1.26 µM [inhibitor, full curve, poor fit]"},
      {"smiles": "Cc1ccc(NC(=O)Cn2c(=O)n(-c3ccc(CC(=O)NCC4CCCO4)cc3)c(=O)c3ccccc32)cc1", "note": "(configuration not stated)", "Potency": "inactive"},
      {"smiles": "CCCCN1CC(c2nc3ccccc3n2CCCCOc2c(C)cccc2C)CC1=O", "note": "(configuration not stated)", "Potency": "inactive"},
      {"smiles": "CCCCCC(C)NC(=O)CN1C(=O)NC(C)(c2ccc3ccccc3c2)C1=O", "note": "(configuration not stated)", "Potency": "inactive"},
      {"smiles": "CCCC(=O)N(c1ccc2oc(-c3ccccc3)c(C(=O)OCC)c2c1)S(=O)(=O)c1ccc(C)cc1", "Potency": "inconclusive: 28.2 µM [inhibitor, single point]"}
    ]}
  ]
}
